The experiment concerns the target GRB2 (endogenous complexes from cell lysate), P62993. Briefly: GRB2 complex binding differential signal (pY peptide minus Ala control peptide) (fluorescence intensity units); higher = stronger GRB2 complex binding. On the procedure: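 In situ synthesized µParaflo PepArray of 6-mer peptides, each starting with an N-terminal phosphotyrosine (lowercase 'y' = pY) followed by 5 native residues. Peptides are tethered to glass through a long linker. Chips were incubated overnight at 4°C with total cell lysate (1 mg in 1 mL) from MCF10A, MCF7, T47D or MDA-MB-231 cells. Bound endogenous GRB2-containing complexes were detected with rabbit anti-GRB2 and an Alexa647 secondary antibody. Signals are background-subtracted and averaged over replicate spots, then the matched Ala-substituted control peptide signal is subtracted (differential signal).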

± gives the uncertainty stated by the source. This is one part of the list. A small y stands for phosphotyrosine.
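Note: phosphopeptide probes on the chip at 1–4 µM, lysate proteins bound in 20 mM Tris pH 7.0 buffer with 140 mM NaCl, 1% Triton X-100 and 5% glycerol.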

Take yNPCQG [FGR_412/A1]: the “GRB2 complex binding differential signal” value is, setting by setting: (MCF7) 60.2 ± 1200; (MCF10A) -16.4 ± 380; (MDA-MB-231) 166 ± 320; (T47D) 371 ± 1500.
Taken in the same sequence, the figures for yGAADH [FGR_28/A1] were 668 ± 260, -53.8 ± 390, 613 ± 400 and 406 ± 1300.
Taken in the same sequence, the figures for yALPHA [ACTS_171/A1] were 11500 ± 1800, 4900 ± 1500, 2600 ± 430 and 2820 ± 1300.
The corresponding values for yYCVDC [FHL1_207/A1] are 84 ± 130, 150 ± 390, 242 ± 250 and 190 ± 1000.
As for yLMKIL [ACTS_190/A1], the “GRB2 complex binding differential signal” value turned out to be 481 ± 270 (MCF7), 223 ± 190 (MCF10A), 378 ± 270 (MDA-MB-231) and 847 ± 2300 (T47D).
As for yEPCLP [FGFR2_805/A1], the “GRB2 complex binding differential signal” value reads like this: (MCF7) 498 ± 290; (MCF10A) 230 ± 480; (MDA-MB-231) 1020 ± 490; (T47D) 1040 ± 1200.
Taken in the same sequence, the figures for yYKKTT [FGFR1_653/A1] were 691 ± 410, 407 ± 700, 566 ± 450 and 919 ± 1000.
With yDINRV [FGFR2_588/A1], the “GRB2 complex binding differential signal” value is, setting by setting: (MCF7) 2260 ± 1500; (MCF10A) 231 ± 370; (MDA-MB-231) 587 ± 550; (T47D) 362 ± 1700.
ySFDTC [FGFR3_577/A1]: the “GRB2 complex binding differential signal” value came to 164 ± 260 (MCF7), 65.8 ± 130 (MCF10A), 172 ± 270 (MDA-MB-231) and 31.1 ± 910 (T47D).
Regarding yLDLSM [FGFR1_766/A1], the “GRB2 complex binding differential signal” value runs as follows: (MCF7) -982 ± 3500; (MCF10A) -43.3 ± 270; (MDA-MB-231) 437 ± 340; (T47D) 147 ± 1500.
As for yQPGDQ [FGR_523/A1], the “GRB2 complex binding differential signal” value was determined as 629 ± 410 (MCF7), 998 ± 750 (MCF10A), 501 ± 370 (MDA-MB-231) and 245 ± 900 (T47D).
Taken in the same sequence, the figures for yNPSHN [FGFR1_585/A1] were -817 ± 1300, 1120 ± 560, 301 ± 790 and -85.2 ± 1100.
Taken in the same sequence, the figures for yWTSPE [FGFR1_154/A1] were 239 ± 650, 172 ± 200, 357 ± 260 and 666 ± 2000.
Taken in the same sequence, the figures for yELPED [FGFR1_463/A1] were 2350 ± 2000, 2030 ± 540, 1960 ± 490 and 1180 ± 1100.
On to yKKTSN [FGFR4_643/A1], for which the “GRB2 complex binding differential signal” value runs as follows: (MCF7) 407 ± 340; (MCF10A) 377 ± 160; (MDA-MB-231) 801 ± 370; (T47D) 1050 ± 1700.
Taken in the same sequence, the figures for yPHING [FGFR2_812/A1] were 268 ± 440, 636 ± 220, 435 ± 440 and 217 ± 1200.
For the molecule yQVARG [FGFR1_605/A1], the “GRB2 complex binding differential signal” value (MCF7) was determined as 4550 ± 830, the “GRB2 complex binding differential signal” value (MCF10A) turned out to be 2630 ± 330, the “GRB2 complex binding differential signal” value (MDA-MB-231) was 297 ± 300 and the “GRB2 complex binding differential signal” value (T47D) worked out at 741 ± 1200.
Take yMMMRD [FGFR1_730/A1]: the “GRB2 complex binding differential signal” value (MCF7) came to 201 ± 360, the “GRB2 complex binding differential signal” value (MCF10A) worked out at 186 ± 290, the “GRB2 complex binding differential signal” value (MDA-MB-231) came out at 338 ± 520 and the “GRB2 complex binding differential signal” value (T47D) amounted to 1030 ± 1300.
The corresponding values for ySYDIN [FGFR2_586/A1] are -525 ± 1400, -51.9 ± 300, 642 ± 350 and 585 ± 910.
For the molecule ySDPQP [FGFR1_280/A1], the “GRB2 complex binding differential signal” value stood at 3600 ± 330 (MCF7), 2130 ± 560 (MCF10A), 1660 ± 580 (MDA-MB-231) and 1650 ± 1100 (T47D).
For yGPDPT [FGR_34/A1], the “GRB2 complex binding differential signal” value (MCF7) worked out at 1490 ± 580, the “GRB2 complex binding differential signal” value (MCF10A) is -806 ± 880, the “GRB2 complex binding differential signal” value (MDA-MB-231) is 767 ± 340 and the “GRB2 complex binding differential signal” value (T47D) stood at 366 ± 880.
With yCYNPS [FGFR1_583/A1], the “GRB2 complex binding differential signal” value reads like this: (MCF7) 235 ± 360; (MCF10A) -17.4 ± 420; (MDA-MB-231) 335 ± 270; (T47D) 569 ± 1200.
Taken in the same sequence, the figures for yLDLRL [FGFR4_754/A1] were 275 ± 580, 177 ± 170, 342 ± 380 and 579 ± 950.
As to ySFVTT [ACTS_200/A1], the “GRB2 complex binding differential signal” value (MCF7) was determined as 99.6 ± 800, the “GRB2 complex binding differential signal” value (MCF10A) came to 484 ± 510, the “GRB2 complex binding differential signal” value (MDA-MB-231) came out at 2830 ± 640 and the “GRB2 complex binding differential signal” value (T47D) worked out at 10900 ± 2600.
As to yQELQS [FES_811/A1], the “GRB2 complex binding differential signal” value runs as follows: (MCF7) 648 ± 300; (MCF10A) 569 ± 260; (MDA-MB-231) 884 ± 510; (T47D) 1070 ± 1200.
Taken in the same sequence, the figures for yKNFVA [FHL1_213/A1] were 55700 ± 7700, 48700 ± 8500, 4180 ± 540 and 21200 ± 5600.
yKKTTN [FGFR1_654/A1]: the “GRB2 complex binding differential signal” value by setting is: (MCF7) 322 ± 300; (MCF10A) 66.6 ± 190; (MDA-MB-231) 553 ± 330; (T47D) 1130 ± 1400.
Taken in the same sequence, the figures for yMIMRE [FGFR3_724/A1] were 368 ± 380, 503 ± 160, 334 ± 250 and 174 ± 710.
Taken in the same sequence, the figures for yVQILK [FGFR1_307/A1] were 5640 ± 660, 1210 ± 220, 2310 ± 620 and 5430 ± 1300.
Taken in the same sequence, the figures for yLDLSA [FGFR3_760/A1] were -29.6 ± 380, 219 ± 230, 515 ± 330 and 609 ± 1100.
In the case of yLDLSQ [FGFR2_769/A1], the “GRB2 complex binding differential signal” value (MCF7) turned out to be 42 ± 240, the “GRB2 complex binding differential signal” value (MCF10A) is -206 ± 390, the “GRB2 complex binding differential signal” value (MDA-MB-231) is 589 ± 460 and the “GRB2 complex binding differential signal” value (T47D) was -190 ± 880.
On to yCPDCA [FHL1_272/A1], for which the “GRB2 complex binding differential signal” value (MCF7) is 210 ± 150, the “GRB2 complex binding differential signal” value (MCF10A) was 79.7 ± 210 and the “GRB2 complex binding differential signal” value (MDA-MB-231) worked out at 82.5 ± 300.
Turning to ySPGGQ [FGFR3_770/A1], the “GRB2 complex binding differential signal” value was -818 ± 1900 (MCF7), -157 ± 1200 (MCF10A), 278 ± 350 (MDA-MB-231) and 49.7 ± 1200 (T47D).

The values are drawn from the supplement of paper PMC3694890.
